The values below come from the RNAGym collection of RNA variant scans (doi:10.7554/elife.90254).

Sequences and labels used below:
B1: LINE1-mini (parent)
chain: GGCAGAGCUCAACACAGCGUGGCAAAGUGGCUGUGGCUAGACUGCC

The source gives no read counts; variants with many changes may rest on few reads.

The variants in the data set derive from B1. In words: self-cleavage, relative activity (ratio to wild type); higher = more cleavage; in vitro, sequencing; the parent is a self-cleaving ribozyme.
As for GGCACAGCUCAACAUAGCGUGGCAAAGUGGCUGUGGCUAGAGUGCC [G5C C15U C42G], the self-cleavage was found to be 0.14.

For GGCACAGCUCAACACAGCGUGGGAAAGUGGAUGUGGCUAGACUGCC [G5C C23G C31A], the self-cleavage is 0.04.

For GGCACAGCUCAACAGAGCAUGGCAAAUUGGCUUUGGAUAGACUGCC [G5C C15G G19A G27U G33U C37A], the self-cleavage worked out at 0.01.

With GGCACAGCUCAACACAGCGUGGCAAAGUGGUUGUGACCAGACUGUC [G5C C31U G36A U38C C45U], the self-cleavage was determined as 0.02.

As to GGCACAGCUCAACACAGCGUGGUAAAGUGGCUGUGUCUAGCCUGCC [G5C C23U G36U A41C], the self-cleavage is 0.03.

Turning to GGCACAGCUCAACAUAGCGUGGCAAAGUGGCUGGGGCUAGACUGCC [G5C C15U U34G], the self-cleavage is 0.04.

In the case of GGCACAGCUAAAUACAGCGUGGCAAAGUGGCUGUGGCUAGAGUUCC [G5C C10A C13U C42G G44U], the self-cleavage was found to be 0.02.

With GGCACAGCUCAACACAGCGUGGCAAAGUGGGUGCGGCUAGACUGCC [G5C C31G U34C], the self-cleavage turned out to be 0.03.

For GGCACAGCUAAACAAAGCGUGGCAAAGUGGACGUGGCUAGACUGCC [G5C C10A C15A C31A U32C], the self-cleavage was 0.04.

In the case of GGCACAGCUGAACACAGCGUGGCAAAAUGGCUGUGGCUAGAAUGCG [G5C C10G G27A C42A C46G], the self-cleavage worked out at 0.01.

GGCACAGCUCAACAUAGCGUGGCAAAGUGGCGGUGGCUAGACUGCC [G5C C15U U32G]: the self-cleavage was determined as 0.03.

GGCACAGCUCAACACAGCGUGGCAAAGUGGGGGUGGCUAGACUGCC [G5C C31G U32G]: the self-cleavage was found to be 0.

Consider GGCACAGCUAAACCCAGCGUGGCAAAGUGGCUGUGGCUCGACUGCC [G5C C10A A14C A39C], for which the self-cleavage turned out to be 0.01.

On to GGCACAGCUCAACACAGCGUGGAAAAGCGGAUGUGGCUAGACUGCC [G5C C23A U28C C31A], for which the self-cleavage was 0.07.

With GGCACAGUUCAACACAGCGAGUCAAAGUAACUGUGGCUAGCAUGCC [G5C C8U U20A G22U G29A G30A A41C C42A], the self-cleavage came out at 0.07.

As for GGCACAGCUCAACACAGGAGGGCAAAGUCGCUGUGGCUAGACUGCC [G5C C18G G19A U20G G29C], the self-cleavage stood at 0.02.

Take GGCACAGCUUAACACAGAGUGGCAAAGUGGCUGUAGCUAGACUGCC [G5C C10U C18A G35A]: the self-cleavage worked out at 0.04.

Regarding GGCACAGCUCAAGACAGAGUGGCAGAGUGGCUGGGGCUAGACUGCC [G5C C13G C18A A25G U34G], the self-cleavage came out at 0.02.

As for GGCACAGCUCAACAAAGCGUGGCACAUUGGCUGUGGCUAGACUGCC [G5C C15A A25C G27U], the self-cleavage amounted to 0.04.

As for GGCACAGCUCAACACAGCGUGGCAAAGUGGCUGUGGGGAGACUGCC [G5C C37G U38G], the self-cleavage is 0.02.

As for GGCACAACUCAACACAGAGUAGCAAAGUGGCUGUGGCUAUACUGCC [G5C G7A C18A G21A G40U], the self-cleavage turned out to be 0.09.

As for GGCACAGCUCAACACAGCGUGGCAAAGUGGUUGUGGCUGGACUGCC [G5C C31U A39G], the self-cleavage was found to be 0.02.

For GGCACAACUCAACACAGCGUGGCAAAGUGGGUGUGGCUAGACUGCC [G5C G7A C31G], the self-cleavage turned out to be 0.03.

For the variant GGCACAACUCAACACAGCGUGGCAAAGUGGCUUUGGCUAGACUGCC [G5C G7A G33U], the self-cleavage worked out at 0.37.

GGCACAGCUCAAAACAGCGUGGCAAAGUCGCUGUGGCUAGACUGCC [G5C C13A G29C]: the self-cleavage was determined as 0.31.

On to GGCACAGCUAAACACCGCGUGGCAAAGUGGCUGUGGCUAGACUGCC [G5C C10A A16C], for which the self-cleavage was 0.02.

In the case of GGCACAGCUCAACACAGCGUGGAAGAGUGGCUGUGGCUAGACUGCC [G5C C23A A25G], the self-cleavage worked out at 0.06.

Consider GGCACAACUCAACACAGAGUGGCAAAGUGGCUUUGGUUAGACUGCA [G5C G7A C18A G33U C37U C46A], for which the self-cleavage is 0.02.

Regarding GGCACAGCUAAACAAAGCGUGGCAAAAUGGCUGUGGCUAGACUGCC [G5C C10A C15A G27A], the self-cleavage turned out to be 0.02.

For the variant GGCACAGCUAAACACAGCGUGGCACAGUGGCUGUGGCUAGACCGCC [G5C C10A A25C U43C], the self-cleavage was found to be 0.03.

Turning to GGCACAGCUCAACAUAGCGUGGCAAAGUGGCUGUGGCUAACCUGCC [G5C C15U G40A A41C], the self-cleavage amounted to 0.08.

For the variant GGCACAGCUCAACACAGAGUGCCAAAGUGGCUGUGGCUAGACUGCG [G5C C18A G22C C46G], the self-cleavage is 0.02.

In the case of GGCACAGCUCAAUACAGCGUGGCUAAGAGGCUGUGGCUUGACUGCC [G5C C13U A24U U28A A39U], the self-cleavage is 0.02.

In the case of GGCACAGCUCAACACAGCGUGGGAAAGUGGCUGUGACUAGACUGCC [G5C C23G G36A], the self-cleavage was 0.01.

In the case of GGCACAGCUCAACAUAGCGUAGCAAAGUGGCUGUGGCUAGACUGCC [G5C C15U G21A], the self-cleavage was 0.06.

With GGCACAGCUAAACACAGCGUGGCAAAGUGGCUGUGGCUACACUGCC [G5C C10A G40C], the self-cleavage stood at 0.05.

With GGCACAAUCCAACACAGCGUGGCAAAGUGCCUGUGGCUAGACUGCC [G5C G7A C8U U9C G30C], the self-cleavage was 0.02.

On to GGCACAGCUCAACACAGCGUGGAAUAGUGGAUGUGGCUAGACUGCC [G5C C23A A25U C31A], for which the self-cleavage worked out at 0.05.

As for GGCACAGCUCAACACAGUGUGGCAAAGGGGCUGUGCCUCGAAUGCC [G5C C18U U28G G36C A39C C42A], the self-cleavage came to 0.

For GGCACAGCUCAAACCAGCGUGGCAAAGUGGCUGUGCCUAGACUGCC [G5C C13A A14C G36C], the self-cleavage was determined as 0.03.

Regarding GGCACAGCUCAACAUAGCGUAGCAACGUAGCUUUGGCUAGACUGCC [G5C C15U G21A A26C G29A G33U], the self-cleavage came out at 0.07.

For the variant GGCACAGCUCAACACAGCGUGGUAAAGUGGCUGAGGAUAGACUGCC [G5C C23U U34A C37A], the self-cleavage came out at 0.09.

With GGCACAGCUCAAGACAGCGUCGUAAAGUAGCUGUGGCUAGACUGCC [G5C C13G G21C C23U G29A], the self-cleavage was 0.

In the case of GGCACAGCUCAAUACCGCGUGGCAAAGUGGCUGUGGCUAGACUGCC [G5C C13U A16C], the self-cleavage is 0.04.

As to GGCACAGCUCAAUACAGCGUGGCAAAGUGGCUGUGGCUAGAGUGCC [G5C C13U C42G], the self-cleavage came to 0.11.

In the case of GGCACAGCUCAACACAGCGUGGCAAAGUGGCUGUGGUUAGAUUGCU [G5C C37U C42U C46U], the self-cleavage was 0.04.

Regarding GGCACAGCUAAACACAGCGUUGCAAAGUGGCUGUGUCUAGACUGCC [G5C C10A G21U G36U], the self-cleavage is 0.06.

GGCACAGCUUAACACAGAGUAGCAAAGUGGCUGUGGCUAGACUGCC [G5C C10U C18A G21A]: the self-cleavage was found to be 0.03.

For GGCACAGCUGUACACAGCGUGGCAAAGUGGUUGUGGCUAGACUGCC [G5C C10G A11U C31U], the self-cleavage was found to be 0.01.

Consider GGCACAGCUCAACACAGUGUGGCAAAGUGUCUGUGGCUAGACUGCC [G5C C18U G30U], for which the self-cleavage worked out at 0.02.

GGCACAGCUCAACAAAGCGUGGCAAAGUGGUUGUGGCUAGACUACC [G5C C15A C31U G44A]: the self-cleavage was found to be 0.02.

Regarding GGCACAGCUCAACACAGCGUGGGAAAAUGGCUGUGGCUAGAAUGCC [G5C C23G G27A C42A], the self-cleavage came to 0.06.

As for GGCACAGCUCAACACAGCGUGGCAAAGUGGCUGUGGCUAGAAUCCC [G5C C42A G44C], the self-cleavage came out at 0.12.

Regarding GGCACAACUCAACAGAGCGUGGGAAAGUGUCUGUGCCUAGACUGCC [G5C G7A C15G C23G G30U G36C], the self-cleavage came to 0.

For GGCACAGCUCAACACAGCGUGGCAAAGUGGCUGUGGGUAUACUGCC [G5C C37G G40U], the self-cleavage was determined as 0.03.

Take GGCACAGCUCAACAAAGCGUGGCAACGUGGCUGUGGCUAGACUGCC [G5C C15A A26C]: the self-cleavage worked out at 0.04.
